Read-outs that look alike come from different tables or passages of the source. Where no end group is shown, it is not given here.
Legend:
[1] = test system: A/Puerto Rico/8/1934 (H1N1) virus; format: in vivo, BALB/c mice; conditions: for survival compared with saline-treated infected mice: 14 days
[2] = test system: A/Puerto Rico/8/1934 (H1N1) virus; format: in vivo, BALB/c mice
[3] = test system: Staphylococcus aureus (COL); format: cell-based; conditions: data not shown
[4] = test system: Neisseria gonorrhoeae (FA19); format: cell-based; conditions: data not shown
[5] = test system: A/Puerto Rico/8/1934 (H1N1) virus; conditions: plaque assay in MDCK-L cells with trypsin; for effect on virus titer in vitro: PR/8 incubated with peptide for 1 hour at room temperature in DMEM
[6] = female Balb/c mice, 10 MLD50 PR/8 intranasal day 0, nebulized 200 µl of 500 µg/ml once daily day -1 to day 7, monitored 14 days, groups of 5
[7] = female Balb/c mice, 10 MLD50 PR/8 intranasal, nebulized 200 µl of 500 µg/ml once daily day -1 to day 7, Kaplan Meier, log rank test

| Compound | survival compared with saline-treated infected mice [1] | body weight loss compared with saline-treated infected mice ([1]; mouse, in vivo) | maximum weight loss observed ([1]; mouse, in vivo) [%] | survival (mice survived) ([1]; mouse, in vivo) | reduction in lung virus titer at 3 days post infection ([2]; mouse, in vivo) | antimicrobial activity of the preparation [3] | antimicrobial activity of the preparation [4] | effect on virus titer in vitro [5] | reduction in lung virus titer at 3 days post infection ([2]; 10 MLD50 PR/8 intranasal, nebulized 200 µl of 500 µg/ml once daily day -1 to day 2, euthanized day 3, compared to control-treated mice) | body weight loss compared with saline-treated infected mice [1, 6] | survival compared with saline-treated infected mice [1, 7] | maximum weight loss observed ([1]; female Balb/c mice, 10 MLD50 PR/8 intranasal, nebulized 200 µl of 500 µg/ml once daily day -1 to day 7, monitored 14 days) [%] | survival (mice survived) ([1]; female Balb/c mice, 10 MLD50 PR/8 intranasal, nebulized 200 µl of 500 µg/ml once daily day -1 to day 7, monitored up to 14 days post infection, groups of 5) | reduction in virus titer in vitro ([5]; PR/8 incubated with physiologically relevant concentrations of peptide for 1 hour at room temperature in DMEM) | lung virus titer at 3 days post infection compared with control-treated mice ([2]; 10 MLD50 PR/8 intranasal, nebulized 200 µl of 500 µg/ml once daily day -1 to day 2, euthanized day 3, plaque assay) | lung virus titer at 3 days post infection compared with control-treated mice ([2]; mouse, in vivo) |
| --- | --- | --- | --- | --- | --- | --- | --- | --- | --- | --- | --- | --- | --- | --- | --- | --- |
| CC(=O)N[C@H]1[C@H]([C@H](O)[C@H](O)CO)OC(C(=O)O)=C[C@@H]1N=C(N)N [zanamivir, reference compound] | significant increase in survival | significantly decreased body weight loss | ~20 | approximately 60% |  |  |  |  |  |  |  |  |  |  |  |  |
| GLLRKGGEKIGEKLKKIGQKIKNFFQKLVPQPEQ [mCRAMP] | significantly enhanced survival | lost less weight |  |  | 70–80% | confirmed | confirmed | significant decrease in virus titer |  |  |  |  |  |  |  |  |
| LLGDFFRKSKEKIGKEFKRIVQRIKDFLRNLVPRTES [LL-37] |  |  |  |  |  | confirmed | confirmed |  | 70-80% | significantly decreased body weight loss | significant increase in survival | ~20 | approximately 60% | approximately 90% |  |  |
| RGGRLCYCRRRFCVCVGR-NH2 (also: bicyclic or more (positions not given here)) [Protegrin-1, porcine neutrophil-derived cathelicidin peptide with two disulfide bridges] |  |  |  |  |  | confirmed | confirmed | did not demonstrate any anti-influenza activity |  | lost weight to the same extent as the control-treated animals | did not show any statistically significant increase in survival |  |  |  | did not show any statistically significant increase in survival (Figure 2E), or reduction in lung virus titers |  |
| RSLEGTDRFPFVRLKNSRKLEFKDIKGIKREQFVKIL [sLL-37, reference compound] | either died or were required to be euthanized due to severe disease | severe weight loss |  |  |  |  |  | no effect |  |  |  |  |  |  |  | no effect |

Reference: article PMC3198734 (PLoS ONE, 2011)
